# Data taken from the supplement of paper PMC8728848.
# Some of the results follow.
# How the values were obtained:
# Assay in all cases: glycan array binding signal (z-score within array); higher = stronger binding
# Conditions in all cases: glycan notation: IUPAC condensed, linker removed
# [1] = target: Fuc(a1-2)[Gal(a1-4)]Gal(b1-4)GlcNAc
# Procedure, shortened: (§1)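 Arrays were curated from the Consortium for Functional Glycomics database, 3228 in total, and kept only where the protein sequence was available. Binding is expressed as a within-array Z-score. This score was averaged across arrays of the same protein sequence at different concentrations or buffers and across linkers, and negative values can be read as non-binding.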
# [2] = target: Fuc(a1-2)[GalNAc(a1-3)]Gal
# Procedure, shortened: as §1
# [3] = target: Fuc(a1-2)[GalNAc(a1-3)]Gal(b1-3)GalNAc(a1-3)[Fuc(a1-2)]Gal(b1-4)GlcNAc
# Procedure, shortened: as §1
# [4] = target: Fuc(a1-2)[GalNAc(a1-3)]Gal(b1-3)GalNAc(b1-3)Gal(a1-4)Gal(b1-4)Glc
# Procedure, shortened: as §1
# [5] = target: Fuc(a1-2)[GalNAc(a1-3)]Gal(b1-3)GlcNAc
# Procedure, shortened: as §1
# [6] = target: Fuc(a1-2)[GalNAc(a1-3)]Gal(b1-3)GlcNAc(b1-2)Man(a1-3)[Fuc(a1-2)[GalNAc(a1-3)]Gal(b1-3)GlcNAc(b1-2)Man(a1-6)]Man(b1-4)GlcNAc(b1-4)GlcNAc
# Procedure, shortened: as §1
# [7] = target: Fuc(a1-2)[GalNAc(a1-3)]Gal(b1-3)GlcNAc(b1-2)Man(a1-3)[Fuc(a1-2)[GalNAc(a1-3)]Gal(b1-3)GlcNAc(b1-2)Man(a1-6)]Man(b1-4)GlcNAc(b1-4)[Fuc(a1-6)]GlcNAc
# Procedure, shortened: as §1
# [8] = target: Fuc(a1-2)[GalNAc(a1-3)]Gal(b1-3)GlcNAc(b1-3)GalNAc
# Procedure, shortened: as §1
# [9] = target: Fuc(a1-2)[GalNAc(a1-3)]Gal(b1-3)GlcNAc(b1-6)GalNAc
# Procedure, shortened: as §1
# [10] = target: Fuc(a1-2)[GalNAc(a1-3)]Gal(b1-4)Glc
# Procedure, shortened: as §1
# [11] = target: Fuc(a1-2)[GalNAc(a1-3)]Gal(b1-4)GlcNAc
# Procedure, shortened: as §1
# [12] = target: Fuc(a1-2)[GalNAc(a1-3)]Gal(b1-4)GlcNAc(b1-2)Man
# Procedure, shortened: as §1
# [13] = target: Fuc(a1-2)[GalNAc(a1-3)]Gal(b1-4)GlcNAc(b1-2)Man(a1-3)[Fuc(a1-2)[GalNAc(a1-3)]Gal(b1-4)GlcNAc(b1-2)Man(a1-6)]Man(b1-4)GlcNAc(b1-4)GlcNAc
# Procedure, shortened: as §1
# [14] = target: Fuc(a1-2)[GalNAc(a1-3)]Gal(b1-4)GlcNAc(b1-2)Man(a1-3)[Fuc(a1-2)[GalNAc(a1-3)]Gal(b1-4)GlcNAc(b1-2)Man(a1-6)]Man(b1-4)GlcNAc(b1-4)[Fuc(a1-6)]GlcNAc
# Procedure, shortened: as §1
# [15] = target: Fuc(a1-2)[GalNAc(a1-3)]Gal(b1-4)GlcNAc(b1-3)Gal(b1-4)GlcNAc
# Procedure, shortened: as §1
# [16] = target: Fuc(a1-2)[GalNAc(a1-3)]Gal(b1-4)GlcNAc(b1-3)Gal(b1-4)GlcNAc(b1-3)Gal(b1-4)GlcNAc
# Procedure, shortened: as §1
# [17] = target: Fuc(a1-2)[GalNAc(a1-3)]Gal(b1-4)GlcNAc(b1-3)GalNAc
# Procedure, shortened: as §1
# [18] = target: Fuc(a1-2)[GalNAc(a1-3)]Gal(b1-4)GlcNAc(b1-3)[Fuc(a1-2)[GalNAc(a1-3)]Gal(b1-4)GlcNAc(b1-6)]GalNAc
# Procedure, shortened: as §1
# [19] = target: Fuc(a1-2)[GalNAc(a1-3)]Gal(b1-4)GlcNAc(b1-6)GalNAc
# Procedure, shortened: as §1
# [20] = target: Fuc(a1-2)[GalNAc(a1-3)]Gal(b1-4)[Fuc(a1-3)]GlcNAc
# Procedure, shortened: as §1
# [21] = target: Fuc(a1-2)[GalNAc(a1-3)]Gal(b1-4)[Fuc(a1-3)]GlcNAc(b1-3)GalNAc
# Procedure, shortened: as §1
# [22] = target: Fuc(a1-2)[GalNAc(a1-4)]Gal(b1-4)GlcNAc
# Procedure, shortened: as §1
# [23] = target: Fuc(a1-2)[GalNAc(b1-3)]Gal
# Procedure, shortened: as §1
# Fuc(a1-3)GlcNAc = target: Fuc(a1-3)GlcNAc
# Procedure, shortened: as §1
# [24] = target: Fuc(a1-3)[Gal(b1-4)]Glc6S
# Procedure, shortened: as §1
# [25] = target: Fuc(a1-3)[Gal(b1-4)]GlcNAc
# Procedure, shortened: as §1
# [26] = target: Fuc(a1-3)[Gal(b1-4)]GlcNAc(b1-2)Man
# Procedure, shortened: as §1
# [27] = target: Fuc(a1-3)[Gal(b1-4)]GlcNAc(b1-2)Man(a1-3)[Fuc(a1-3)[Gal(b1-4)]GlcNAc(b1-2)Man(a1-6)]Man(b1-4)GlcNAc(b1-4)GlcNAc
# Procedure, shortened: as §1
# [28] = target: Fuc(a1-3)[Gal(b1-4)]GlcNAc(b1-2)Man(a1-3)[Fuc(a1-3)[Gal(b1-4)]GlcNAc(b1-2)Man(a1-6)]Man(b1-4)GlcNAc(b1-4)[Fuc(a1-6)]GlcNAc
# Procedure, shortened: as §1
# [29] = target: Fuc(a1-3)[Gal(b1-4)]GlcNAc(b1-3)Gal(b1-3)[Fuc(a1-4)]GlcNAc
# Procedure, shortened: as §1
# [30] = target: Fuc(a1-3)[Gal(b1-4)]GlcNAc(b1-3)Gal(b1-4)[Fuc(a1-3)]GlcNAc
# Procedure, shortened: as §1
# [31] = target: Fuc(a1-3)[Gal(b1-4)]GlcNAc(b1-3)Gal(b1-4)[Fuc(a1-3)]GlcNAc(b1-3)Gal(b1-4)[Fuc(a1-3)]GlcNAc
# Procedure, shortened: as §1
# [32] = target: Fuc(a1-3)[Gal(b1-4)]GlcNAc(b1-3)GalNAc
# Procedure, shortened: as §1
# [33] = target: Fuc(a1-3)[Gal(b1-4)]GlcNAc(b1-6)GalNAc
# Procedure, shortened: as §1
# [34] = target: Fuc(a1-3)[Gal(b1-4)]GlcNAc(b1-6)[Gal(b1-3)GlcNAc(b1-3)]Gal(b1-4)Glc
# Procedure, shortened: as §1
# [35] = target: Fuc(a1-3)[Gal(b1-4)]GlcNAc6S
# Procedure, shortened: as §1
# [36] = target: Fuc(a1-3)[Gal3S(b1-4)]Glc
# Procedure, shortened: as §1
# [37] = target: Fuc(a1-3)[Gal3S(b1-4)]GlcNAc
# Procedure, shortened: as §1
binder,measurement,setting,value
diCBM40 CPF071 (Clostridium perfringens) (protein) MAHHHHHHVGTGSNDDDDKSPDPMLSSLGEYKDINLESSNASNITYDLEKYKNLDEGTIVVRFNSKDSKIQSLLGISNSKTKNGYFNFYVTNSRVGFELRNQKNEGNTQNGTENLVHMYKDVALNDGDNTVALKIEKNKGYKLFLNGKMIKEVKDTNTKFLNNIENLDSAFIGKTNRYGQSNEYNFKGNIGFMNIYNEPLGDDYLLSKTGETKALNGSELGSGSGLSSLGEYKDINLESSNASNITYDLEKYKNLDEGTIVVRFNSKDSKIQSLLGISNSKTKNGYFNFYVTNSRVGFELRNQKNEGNTQNGTENLVHMYKDVALNDGDNTVALKIEKNKGYKLFLNGKMIKEVKDTNTKFLNNIENLDSAFIGKTNRYGQSNEYNFKGNIGFMNIYNEPLGDDYLLSKTGETK,glycan array binding signal (z-score),[1],-0.342
same,glycan array binding signal (z-score),[2],-0.302
same,glycan array binding signal (z-score),[3],-0.268
same,glycan array binding signal (z-score),[4],-0.281
same,glycan array binding signal (z-score),[5],-0.343
same,glycan array binding signal (z-score),[6],-0.308
same,glycan array binding signal (z-score),[7],-0.294
same,glycan array binding signal (z-score),[8],-0.288
same,glycan array binding signal (z-score),[9],-0.287
same,glycan array binding signal (z-score),[10],-0.264
same,glycan array binding signal (z-score),[11],-0.223
same,glycan array binding signal (z-score),[12],-0.328
same,glycan array binding signal (z-score),[13],-0.314
same,glycan array binding signal (z-score),[14],-0.324
same,glycan array binding signal (z-score),[15],-0.321
same,glycan array binding signal (z-score),[16],-0.168
same,glycan array binding signal (z-score),[17],-0.285
same,glycan array binding signal (z-score),[18],-0.287
same,glycan array binding signal (z-score),[19],-0.321
same,glycan array binding signal (z-score),[20],-0.317
same,glycan array binding signal (z-score),[21],-0.143
same,glycan array binding signal (z-score),[22],-0.255
same,glycan array binding signal (z-score),[23],-0.287
same,glycan array binding signal (z-score),Fuc(a1-3)GlcNAc,-0.335
same,glycan array binding signal (z-score),[24],-0.148
same,glycan array binding signal (z-score),[25],-0.346
same,glycan array binding signal (z-score),[26],-0.313
same,glycan array binding signal (z-score),[27],-0.326
same,glycan array binding signal (z-score),[28],-0.084
same,glycan array binding signal (z-score),[29],0.191
same,glycan array binding signal (z-score),[30],-0.287
same,glycan array binding signal (z-score),[31],-0.183
same,glycan array binding signal (z-score),[32],-0.257
same,glycan array binding signal (z-score),[33],-0.315
same,glycan array binding signal (z-score),[34],-0.311
same,glycan array binding signal (z-score),[35],-0.291
same,glycan array binding signal (z-score),[36],-0.174
same,glycan array binding signal (z-score),[37],-0.335
